Among the test systems are A101D; A2058; A375.
What all share (assay): cell count relative to DMSO control; melanoma cells; higher = more viable cells
What all share (settings): library dose: standard library concentration; 72 h

The list shows a part of the results. Single values are uncertain, as repeats are few or missing.

We go through 25 molecules from the supplement of paper PMC4604168 (melanoma cell lines).
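Note: cells treated in 1,536-well plates, then fixed and DAPI-stained, with nuclei counted from automated high-throughput microscope images.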

Consider `Cc1ccc(Nc2nccc(N(C)c3ccc4c(C)n(C)nc4c3)n2)cc1S(N)(=O)=O` [Pazopanib] + Cn1sc(=O)n(Cc2ccccc2)c1=O [TDZD-8] (first compound 2 µM, partner dose 2 µM), for which the cell count turned out to be 85.1% in the test on A101D, 74% with A2058 and 118% in the test with A375.

As for `CC1(C)CCC(c2ccc(Cl)cc2)=C(CN2CCN(c3ccc(C(=O)NS(=O)(=O)c4ccc(N[C@H](CCN5CCOCC5)CSc5ccccc5)c(S(=O)(=O)C(F)(F)F)c4)cc3)CC2)C1` + Cn1c(=O)n(-c2ccc(C(C)(C)C#N)cc2)c2c3cc(-c4cnc5ccccc5c4)ccc3ncc21 [NVP-BEZ235] (first compound 2 µM, partner dose 0.02 µM), the cell count is 28.2% with A101D, 64.1% in the test on A2058 and 49.4% in the test on A375.

Turning to `O=C(/C=C/c1cccnc1)NCCCCC1CCN(C(=O)c2ccccc2)CC1` + CC(=O)O[C@@]12CO[C@@H]1C[C@H](O)[C@@]1(C)C(=O)[C@H](O)C3=C(C)[C@@H](OC(=O)[C@H](O)[C@@H](NC(=O)OC(C)(C)C)c4ccccc4)C[C@@](O)([C@@H](OC(=O)c4ccccc4)[C@H]21)C3(C)C [Docetaxel] (first compound 0.05 µM, partner dose 0.0005 µM), the cell count in the test with A101D was 49.1%; in the test with A2058 it was 9.45%; with A375, 77.5%.

As to `CC1(C)CCC(c2ccc(Cl)cc2)=C(CN2CCN(c3ccc(C(=O)NS(=O)(=O)c4ccc(N[C@H](CCN5CCOCC5)CSc5ccccc5)c(S(=O)(=O)C(F)(F)F)c4)cc3)CC2)C1` + O=C(O)c1ccc2c(c1)nc(Nc1cccc(Cl)c1)c1ccncc12 [CX4945] (first compound 2 µM, partner dose 2 µM), the cell count worked out at 33.9% with A101D, 68% in the test on A2058 and 39.1% with A375.

As to `O=C(/C=C/c1cccnc1)NCCCCC1CCN(C(=O)c2ccccc2)CC1` + C=C(c1ccc(C(=O)O)cc1)c1cc2c(cc1C)C(C)(C)CCC2(C)C [Bexarotene] (first compound 0.05 µM, partner dose 10 µM), the cell count with A101D came out at 94.2%; in the test on A2058, 137%; in the test on A375 it was 107%.

Turning to `O=C(/C=C/c1cccnc1)NCCCCC1CCN(C(=O)c2ccccc2)CC1` + O=C(CCCCCCC(=O)Nc1ccccc1)NO [vorinostat] (first compound 0.05 µM, partner dose 0.4 µM), the cell count in the test on A101D amounted to 67.2%; in the test on A2058 it was 78.7%; in the test on A375 it was 117%.

For `Cc1ccc(Nc2nccc(N(C)c3ccc4c(C)n(C)nc4c3)n2)cc1S(N)(=O)=O` [Pazopanib] + CC(=O)O[C@@]12CO[C@@H]1C[C@H](O)[C@@]1(C)C(=O)[C@H](O)C3=C(C)[C@@H](OC(=O)[C@H](O)[C@@H](NC(=O)OC(C)(C)C)c4ccccc4)C[C@@](O)([C@@H](OC(=O)c4ccccc4)[C@H]21)C3(C)C [Docetaxel] (first compound 2 µM, partner dose 0.0005 µM), the cell count turned out to be 34.7% with A101D, 10.6% in the test with A2058 and 62.4% with A375.

Take `CC1(C)CCC(c2ccc(Cl)cc2)=C(CN2CCN(c3ccc(C(=O)NS(=O)(=O)c4ccc(N[C@H](CCN5CCOCC5)CSc5ccccc5)c(S(=O)(=O)C(F)(F)F)c4)cc3)CC2)C1` + C[C@@H](N)c1ccc(C(=O)Nc2ccnc3[nH]ccc23)cc1 [RKI983] (first compound 2 µM, partner dose 2 µM): the cell count was 32.6% in the test on A101D, 62.6% with A2058 and 49.2% in the test with A375.

For the molecule `O=C(/C=C/c1cccnc1)NCCCCC1CCN(C(=O)c2ccccc2)CC1` + CC(=O)c1c(C)c2cnc(Nc3ccc(N4CCNCC4)cn3)nc2n(C2CCCC2)c1=O [palbociclib] (first compound 0.05 µM, partner dose 0.2 µM), the results for the cell count in the test with A101D, in the test with A2058 and in the test with A375 were 63.3%, 106% and 102%, respectively.

On to `Cc1ccc(Nc2nccc(N(C)c3ccc4c(C)n(C)nc4c3)n2)cc1S(N)(=O)=O` [Pazopanib] + CCCCCCCCc1ccc(CCC(N)(CO)CO)cc1 [fingolimod] (first compound 2 µM, partner dose 10 µM), for which the cell count in the test on A101D was 7.68%; in the test with A2058, 12.9%; in the test on A375 it was 76.6%.

Turning to `CC1(C)CCC(c2ccc(Cl)cc2)=C(CN2CCN(c3ccc(C(=O)NS(=O)(=O)c4ccc(N[C@H](CCN5CCOCC5)CSc5ccccc5)c(S(=O)(=O)C(F)(F)F)c4)cc3)CC2)C1` + Nc1ncn([C@H]2C[C@H](O)[C@@H](CO)O2)c(=O)n1 [decitabine] (first compound 2 µM, partner dose 0.5 µM), the figures for the cell count in the test on A101D, in the test with A2058 and in the test with A375 were 39%, 82.2% and 94.4%, respectively.

Regarding `Cc1ccc(Nc2nccc(N(C)c3ccc4c(C)n(C)nc4c3)n2)cc1S(N)(=O)=O` [Pazopanib] + CCCS(=O)(=O)Nc1ccc(F)c(C(=O)c2c[nH]c3ncc(Cl)cc23)c1F [PLX4720] (first compound 2 µM, partner dose 0.4 µM), the cell count in the test on A101D is 79%; with A2058, 117%; with A375, 108%.

With `CC1(C)CCC(c2ccc(Cl)cc2)=C(CN2CCN(c3ccc(C(=O)NS(=O)(=O)c4ccc(N[C@H](CCN5CCOCC5)CSc5ccccc5)c(S(=O)(=O)C(F)(F)F)c4)cc3)CC2)C1` + O=C(O)c1ccc(-c2c[nH]c3ncc(-c4ccccc4)cc23)cc1C1CCCC1 [GSK650394] (first compound 2 µM, partner dose 0.8 µM), the values for the cell count in the test with A101D, in the test on A2058 and in the test on A375 were 34.2%, 77.5% and 64.6%, respectively.

On to `Cc1ccc(Nc2nccc(N(C)c3ccc4c(C)n(C)nc4c3)n2)cc1S(N)(=O)=O` [Pazopanib] + O=C(O)c1ccc(-c2c[nH]c3ncc(-c4ccccc4)cc23)cc1C1CCCC1 [GSK650394] (first compound 2 µM, partner dose 0.8 µM), for which the cell count with A101D was found to be 74%; in the test on A2058 it was 86.6%; with A375, 100%.

As to `CC1(C)CCC(c2ccc(Cl)cc2)=C(CN2CCN(c3ccc(C(=O)NS(=O)(=O)c4ccc(N[C@H](CCN5CCOCC5)CSc5ccccc5)c(S(=O)(=O)C(F)(F)F)c4)cc3)CC2)C1` + COc1cc2c(Oc3ccc4[nH]c(C)cc4c3F)ncnc2cc1OCCCN1CCCC1 [cediranib] (first compound 2 µM, partner dose 2 µM), the cell count in the test on A101D was found to be 57.2%; with A2058 it was 89.8%; in the test on A375 it was 77.8%.

As for `Cc1ccc(Nc2nccc(N(C)c3ccc4c(C)n(C)nc4c3)n2)cc1S(N)(=O)=O` [Pazopanib] + COc1ccc(Cl)c(Nc2nc3ccccc3nc2NS(=O)(=O)c2cccc(NC(=O)C(C)(C)N)c2)c1 [XL147] (first compound 2 µM, partner dose 4 µM), the cell count with A101D is 74.7%; in the test with A2058, 72.3%; in the test on A375, 76.5%.

As for `CC1(C)CCC(c2ccc(Cl)cc2)=C(CN2CCN(c3ccc(C(=O)NS(=O)(=O)c4ccc(N[C@H](CCN5CCOCC5)CSc5ccccc5)c(S(=O)(=O)C(F)(F)F)c4)cc3)CC2)C1` + CCN(CC)CCNC(=O)c1c(C)[nH]c(/C=C2\C(=O)Nc3ccc(F)cc32)c1C [sunitinib] (first compound 2 µM, partner dose 2 µM), the cell count stood at 20.9% in the test with A101D, 42.4% in the test with A2058 and 54.7% with A375.

Turning to `CC1(C)CCC(c2ccc(Cl)cc2)=C(CN2CCN(c3ccc(C(=O)NS(=O)(=O)c4ccc(N[C@H](CCN5CCOCC5)CSc5ccccc5)c(S(=O)(=O)C(F)(F)F)c4)cc3)CC2)C1` + CN(C)S(=O)(=O)c1ccc2c(c1)/C(=C/c1cc3c([nH]1)CCCC3)C(=O)N2 [SU6656] (first compound 2 µM, partner dose 2 µM), the cell count in the test with A101D stood at 24.5%; in the test with A2058, 84%; in the test on A375 it was 62.3%.

Regarding `Cc1ccc(Nc2nccc(N(C)c3ccc4c(C)n(C)nc4c3)n2)cc1S(N)(=O)=O` [Pazopanib] + Cc1cc(Nc2cc(N3CCN(C)CC3)nc(/C=C/c3ccccc3)n2)n[nH]1 [ENMD2076] (first compound 2 µM, partner dose 0.2 µM), the results for the cell count with A101D, with A2058 and in the test on A375 were 81%, 81.2% and 84.5%, respectively.

With `O=C(/C=C/c1cccnc1)NCCCCC1CCN(C(=O)c2ccccc2)CC1` + Nc1ccn([C@@H]2O[C@H](CO)[C@@H](O)C2(F)F)c(=O)n1 [gemcitabine] (first compound 0.05 µM, partner dose 0.002 µM), the cell count turned out to be 76.9% in the test with A101D, 60.8% in the test with A2058 and 96.4% in the test with A375.

`CC1(C)CCC(c2ccc(Cl)cc2)=C(CN2CCN(c3ccc(C(=O)NS(=O)(=O)c4ccc(N[C@H](CCN5CCOCC5)CSc5ccccc5)c(S(=O)(=O)C(F)(F)F)c4)cc3)CC2)C1` + COc1ccc(Cl)c(Nc2nc3ccccc3nc2NS(=O)(=O)c2cccc(NC(=O)C(C)(C)N)c2)c1 [XL147] (first compound 2 µM, partner dose 4 µM): the cell count in the test with A101D stood at 49.7%; with A2058 it was 116%; in the test with A375, 89.8%.

As to `Cc1ccc(Nc2nccc(N(C)c3ccc4c(C)n(C)nc4c3)n2)cc1S(N)(=O)=O` [Pazopanib] + Cc1cn(-c2cc(NC(=O)c3ccc(C)c(Nc4nccc(-c5cccnc5)n4)c3)cc(C(F)(F)F)c2)cn1 [nilotinib] (first compound 2 µM, partner dose 1 µM), the cell count came to 98.8% in the test with A101D, 166% in the test with A2058 and 99.9% in the test on A375.

Turning to `O=C(/C=C/c1cccnc1)NCCCCC1CCN(C(=O)c2ccccc2)CC1` + CCCS(=O)(=O)Nc1ccc(F)c(C(=O)c2c[nH]c3ncc(Cl)cc23)c1F [PLX4720] (first compound 0.05 µM, partner dose 0.4 µM), the cell count in the test with A101D came to 66.8%; in the test on A2058, 98.5%; in the test on A375, 93.4%.

With `CC1(C)CCC(c2ccc(Cl)cc2)=C(CN2CCN(c3ccc(C(=O)NS(=O)(=O)c4ccc(N[C@H](CCN5CCOCC5)CSc5ccccc5)c(S(=O)(=O)C(F)(F)F)c4)cc3)CC2)C1` + CO[C@@H]1[C@H](N(C)C(=O)c2ccccc2)C[C@H]2O[C@]1(C)n1c3ccccc3c3c4c(c5c6ccccc6n2c5c31)C(=O)NC4 [Midostaurin] (first compound 2 µM, partner dose 0.4 µM), the figures for the cell count in the test on A101D, in the test with A2058 and in the test on A375 were 28.5%, 42% and 40.4%, respectively.

For `CC1(C)CCC(c2ccc(Cl)cc2)=C(CN2CCN(c3ccc(C(=O)NS(=O)(=O)c4ccc(N[C@H](CCN5CCOCC5)CSc5ccccc5)c(S(=O)(=O)C(F)(F)F)c4)cc3)CC2)C1` + CCCCCCCCc1ccc(CCC(N)(CO)CO)cc1 [fingolimod] (first compound 2 µM, partner dose 10 µM), the cell count with A101D was found to be 5.8%; in the test on A2058 it was 5.75%; in the test with A375, 27.9%.
